Here are results for 34 molecules from the supplement of paper PMC6609913.

This experiment has as its system V-C8 (BRCA2-deficient hamster cells). The experiment is described as follows: normalised cell viability (fraction of plate median); higher = more viable cells (less toxic). The settings on record: 5 µM. In a few lines:
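Hamster V-C8 cells with and without restored BRCA2 were exposed in 96-well plates to library drugs at 5 μM for 3 days (screen 1) or 6 days (screen 2). Cell viability was scored by resazurin assay, then median-plate normalised, averaging triplicate wells.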

Counter-ions that a name gives are not always drawn. ± gives the standard deviation of the averaged measurements. Whole data set: some 1,300 compounds, median “normalised cell viability” near 1, cut for the lowest 2% near 0.14. This is one part of the list.

Turning to `CNCC[C@@H](Oc1ccccc1C)c1ccccc1` [Tomoxetine hydrochloride], the normalised cell viability stood at 0.906 ± 0.033 (treatment time: 3 days) and 0.926 ± 0.066 (treatment time: 6 days).

Regarding `Cc1c(NC(C)C)c(=O)n(-c2ccccc2)n1C` [Isopyrin hydrochloride], the normalised cell viability is, setting by setting: (treatment time: 3 days) 0.949 ± 0.022; (treatment time: 6 days) 1.06 ± 0.028.

As to `CCCNC(C)C(=O)Nc1c(C)csc1C(=O)OC` (stereo not drawn) [Articaine hydrochloride], the normalised cell viability by setting is: (treatment time: 3 days) 1.03 ± 0.024; (treatment time: 6 days) 1.06 ± 0.084.

For `NCCc1cc[nH]n1` [Betazole hydrochloride], the normalised cell viability (treatment time: 3 days) was determined as 1.04 ± 0.038 and the normalised cell viability (treatment time: 6 days) came to 1.09 ± 0.025.

For the molecule `COc1cccc(N(C)C(=S)Oc2ccc3c(c2)CCCC3)n1` [Liranaftate], the normalised cell viability worked out at 0.805 ± 0.038 (treatment time: 3 days) and 0.74 ± 0.046 (treatment time: 6 days).

Turning to `CC(C[N+](C)(C)C)OC(N)=O` (stereo not drawn) [Bethanechol chloride], the normalised cell viability was determined as 1.01 ± 0.023 (treatment time: 3 days) and 1.04 ± 0.034 (treatment time: 6 days).

In the case of `COc1ccc([C@@H]2Sc3ccccc3N(CCN(C)C)C(=O)[C@@H]2OC(C)=O)cc1` [Diltiazem hydrochloride], the normalised cell viability by setting is: (treatment time: 3 days) 1.07 ± 0.053; (treatment time: 6 days) 0.959 ± 0.046.

For `Cc1cn([C@H]2C[C@H](N=[N+]=[N-])[C@@H](CO)O2)c(=O)[nH]c1=O` [Zidovudine, AZT], the normalised cell viability amounted to 0.965 ± 0.042 (treatment time: 3 days) and 0.908 ± 0.052 (treatment time: 6 days).

For the molecule `COc1ccc2c(c1)C(=O)N(CCc1ccc(S(=O)(=O)NC(=O)NC3CCCCC3)cc1)C(=O)C2(C)C` [Gliquidone], the normalised cell viability came out at 1.05 ± 0.077 (treatment time: 3 days) and 1.08 ± 0.049 (treatment time: 6 days).

For `CN(C)CCN(Cc1ccc(Cl)cc1)c1ccccn1` [Chloropyramine hydrochloride], the normalised cell viability (treatment time: 3 days) was 1.02 ± 0.045 and the normalised cell viability (treatment time: 6 days) amounted to 1.09 ± 0.25.

On to `NS(=O)(=O)Cc1noc2ccccc12` [Zonisamide], for which the normalised cell viability is, setting by setting: (treatment time: 3 days) 1.01 ± 0.036; (treatment time: 6 days) 1.03 ± 0.065.

`O=C(CCCN1CCC(O)(c2ccc(Cl)cc2)CC1)c1ccc(F)cc1` [Haloperidol]: the normalised cell viability came to 0.662 ± 0.15 (treatment time: 3 days) and 0.602 ± 0.052 (treatment time: 6 days).

For `Cc1ccc(C)c(OCCCC(C)(C)C(=O)O)c1` [Gemfibrozil], the normalised cell viability (treatment time: 3 days) was 0.951 ± 0.038 and the normalised cell viability (treatment time: 6 days) came to 1.03 ± 0.032.

For `NC(=O)c1ccc[n+]([C@@H]2O[C@H](COP(=O)([O-])OP(=O)(O)OC[C@H]3O[C@@H](n4cnc5c(N)ncnc54)[C@H](O)[C@@H]3O)[C@@H](O)[C@H]2O)c1` [Nadide], the normalised cell viability is 1.01 ± 0.043 (treatment time: 3 days) and 1.08 ± 0.028 (treatment time: 6 days).

For `CNCCC=C1c2ccccc2C=Cc2ccccc21` [Norcyclobenzaprine], the normalised cell viability runs as follows: (treatment time: 3 days) 0.959 ± 0.045; (treatment time: 6 days) 0.835 ± 0.035.

Take `COC(=O)CCc1ccc(OCC(O)CNC(C)C)cc1` (stereo not drawn) [Esmolol hydrochloride]: the normalised cell viability was determined as 1.04 ± 0.077 (treatment time: 3 days) and 0.939 ± 0.08 (treatment time: 6 days).

`CN1C(C(=O)Nc2ccccn2)=C(O)c2ccccc2S1(=O)=O` [Piroxicam]: the normalised cell viability was 1.01 ± 0.098 (treatment time: 3 days) and 1.08 ± 0.017 (treatment time: 6 days).

As to `COCCOC(=O)C1=C(C)NC(C)=C(C(=O)OC(C)C)C1c1cccc([N+](=O)[O-])c1` (stereo not drawn) [Nimodipine], the normalised cell viability was 0.986 ± 0.016 (treatment time: 3 days) and 0.931 ± 0.019 (treatment time: 6 days).

For the molecule `CC1(C)S[C@@H]2[C@H](NC(=O)[C@H](N)c3ccccc3)C(=O)N2[C@H]1C(=O)OC1OC(=O)c2ccccc21` (stereo partly drawn) [Talampicillin hydrochloride], the normalised cell viability runs as follows: (treatment time: 3 days) 1.09 ± 0.082; (treatment time: 6 days) 1.02 ± 0.085.

`NC(=O)OCC(O)COc1ccc(Cl)cc1` (stereo not drawn) [Chlorphensin carbamate]: the normalised cell viability is, setting by setting: (treatment time: 3 days) 1.04 ± 0.059; (treatment time: 6 days) 0.938 ± 0.049.

Turning to `C[C@]12CCC(=O)C=C1C=C[C@@H]1[C@@H]2CC[C@@]2(C)[C@H]1CC[C@@]21CCC(=O)O1` [Canrenone], the normalised cell viability by setting is: (treatment time: 3 days) 1.04 ± 0.022; (treatment time: 6 days) 0.999 ± 0.038.

`CC(C)NC(=N)NC(=N)Nc1ccc(Cl)cc1` [Proguanil hydrochloride]: the normalised cell viability by setting is: (treatment time: 3 days) 0.196 ± 0.012; (treatment time: 6 days) 0.189 ± 0.014.

Consider `Cc1nnc(SCC2=C(C(=O)O)N3C(=O)[C@@H](NC(=O)Cn4cnnn4)[C@H]3SC2)s1` [Cefazolin sodium salt], for which the normalised cell viability by setting is: (treatment time: 3 days) 1.07 ± 0.022; (treatment time: 6 days) 1.08 ± 0.03.

Turning to `O=c1[nH]c(=O)n([C@H]2C[C@H](O)[C@@H](CO)O2)cc1C(F)(F)F` [Trifluridine], the normalised cell viability by setting is: (treatment time: 3 days) 0.22 ± 0.024; (treatment time: 6 days) 0.267 ± 0.04.

In the case of `COc1ccc2c3c1O[C@H]1C[C@@H](O)C=C[C@@]31CCN(C)C2` [Galanthamine hydrobromide], the normalised cell viability is 1.12 ± 0.072 (treatment time: 3 days) and 1.04 ± 0.043 (treatment time: 6 days).

With `CCCCCCCCNC(C)C(O)c1ccc(SC(C)C)cc1` (stereo not drawn) [Suloctidil], the normalised cell viability turned out to be 0.204 ± 0.032 (treatment time: 3 days) and 0.558 ± 0.07 (treatment time: 6 days).

In the case of `CC(=O)CC(c1ccc([N+](=O)[O-])cc1)c1c(O)c2ccccc2oc1=O` (stereo not drawn) [Acenocoumarol], the normalised cell viability by setting is: (treatment time: 3 days) 0.82 ± 0.27; (treatment time: 6 days) 0.786 ± 0.044.

`S=c1[nH]cnc2nc[nH]c12` [Mercaptopurine] came in with a normalised cell viability (treatment time: 3 days) of 0.667 ± 0.062 and a normalised cell viability (treatment time: 6 days) of 0.621 ± 0.041.

For the molecule `CN(Cc1ccc(C(C)(C)C)cc1)Cc1cccc2ccccc12` [Butenafine Hydrochloride], the normalised cell viability runs as follows: (treatment time: 3 days) 1.07 ± 0.047; (treatment time: 6 days) 1.01 ± 0.019.

For the molecule `COc1cc(NS(=O)(=O)c2ccc(N)cc2)nc(OC)n1` [Sulfadimethoxine], the normalised cell viability (treatment time: 3 days) worked out at 0.958 ± 0.017 and the normalised cell viability (treatment time: 6 days) came out at 0.99 ± 0.058.

Take `CC[N+](CC)(CC(=O)Nc1c(C)cccc1C)Cc1ccccc1` [Denatonium benzoate]: the normalised cell viability runs as follows: (treatment time: 3 days) 1.01 ± 0.031; (treatment time: 6 days) 1.07 ± 0.019.

`CC1(C)O[C@@H]2[C@@H](CO[C@@]3(COS(N)(=O)=O)OC(C)(C)O[C@@H]23)O1` [Topiramate] showed a normalised cell viability (treatment time: 3 days) of 1.13 ± 0.26 and a normalised cell viability (treatment time: 6 days) of 1.08 ± 0.021.

On to `Cc1cccc(Nc2ccncc2S(=O)(=O)NC(=O)NC(C)C)c1` [Torsemide], for which the normalised cell viability is, setting by setting: (treatment time: 3 days) 1.115 ± 0.01; (treatment time: 6 days) 1.11 ± 0.07.

For `NC(=O)N1c2ccccc2CC(=O)c2ccccc21` [Oxcarbazepine], the normalised cell viability (treatment time: 3 days) amounted to 1.06 ± 0.018 and the normalised cell viability (treatment time: 6 days) was found to be 1.08 ± 0.029.
